From the supplement of paper PMC8728848
Some of the results follow.

How the values were obtained:
Test in all cases: glycan array binding signal (z-score within array); higher = stronger binding
Conditions in all cases: glycan notation: IUPAC condensed, linker removed
Fuc(a1-2)Gal = biological target: Fuc(a1-2)Gal
Procedure, shortened: (§1)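 Columns mapping to the same glycan were averaged after glycan names were converted to IUPAC-condensed notation. The data come from 3228 arrays in the Consortium for Functional Glycomics database, limited to those with an available protein sequence. Binding is reported as a within-array Z-score averaged across arrays of one protein sequence and across linkers.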

Fuc(a1-2)Gal(b1-3)GalNAc = biological target: Fuc(a1-2)Gal(b1-3)GalNAc
Procedure, shortened: as §1

[1] = biological target: Fuc(a1-2)Gal(b1-3)GalNAc(b1-3)Gal
Procedure, shortened: as §1

[2] = biological target: Fuc(a1-2)Gal(b1-3)GalNAc(b1-3)Gal(a1-4)Gal(b1-4)Glc
Procedure, shortened: as §1

[3] = biological target: Fuc(a1-2)Gal(b1-3)GalNAc(b1-3)Gal(b1-4)Glc
Procedure, shortened: as §1

[4] = biological target: Fuc(a1-2)Gal(b1-3)GalNAc(b1-4)[Neu5Ac(a2-3)]Gal(b1-4)Glc
Procedure, shortened: as §1

[5] = biological target: Fuc(a1-2)Gal(b1-3)[Fuc(a1-4)]GlcNAc
Procedure, shortened: as §1

Fuc(a1-2)Gal(b1-4)Glc = biological target: Fuc(a1-2)Gal(b1-4)Glc
Procedure, shortened: as §1

Fuc(a1-2)Gal(b1-4)Glc6S = biological target: Fuc(a1-2)Gal(b1-4)Glc6S
Procedure, shortened: as §1

Fuc(a1-2)Gal(b1-4)GlcNAc = biological target: Fuc(a1-2)Gal(b1-4)GlcNAc
Procedure, shortened: as §1

[6] = biological target: Fuc(a1-2)Gal(b1-4)GlcNAc(b1-3)Gal(b1-4)GlcNAc
Procedure, shortened: as §1

[7] = biological target: Fuc(a1-2)Gal(b1-4)GlcNAc(b1-3)Gal(b1-4)GlcNAc(b1-3)Gal(b1-4)GlcNAc
Procedure, shortened: as §1

[8] = biological target: Fuc(a1-2)Gal(b1-4)GlcNAc6S
Procedure, shortened: as §1

[9] = biological target: Fuc(a1-2)Gal(b1-4)[Fuc(a1-3)]GalNAc(b1-3)Gal(b1-4)[Fuc(a1-3)]GlcNAc
Procedure, shortened: as §1

[10] = biological target: Fuc(a1-2)Gal(b1-4)[Fuc(a1-3)]GalNAc(b1-3)Gal(b1-4)[Fuc(a1-3)]GlcNAc(b1-3)Gal(b1-4)[Fuc(a1-3)]GalNAc
Procedure, shortened: as §1

[11] = biological target: Fuc(a1-2)Gal(b1-4)[Fuc(a1-3)]GlcNAc
Procedure, shortened: as §1

Fuc(a1-2)Gal6S(b1-4)Glc = biological target: Fuc(a1-2)Gal6S(b1-4)Glc
Procedure, shortened: as §1

[12] = biological target: Fuc(a1-2)Gal6S(b1-4)Glc6S
Procedure, shortened: as §1

[13] = biological target: Fuc(a1-2)Gal6S(b1-4)GlcNAc
Procedure, shortened: as §1

Fuc(a1-2)GlcNAc = biological target: Fuc(a1-2)GlcNAc
Procedure, shortened: as §1

Fuc(a1-2)[Gal(a1-3)]Gal = biological target: Fuc(a1-2)[Gal(a1-3)]Gal
Procedure, shortened: as §1

[14] = biological target: Fuc(a1-2)[Gal(a1-3)]Gal(b1-3)GlcNAc
Procedure, shortened: as §1

[15] = biological target: Fuc(a1-2)[Gal(a1-3)]Gal(b1-4)Glc
Procedure, shortened: as §1

[16] = biological target: Fuc(a1-2)[Gal(a1-3)]Gal(b1-4)GlcNAc
Procedure, shortened: as §1

[17] = biological target: Fuc(a1-2)[Gal(a1-3)]Gal(b1-4)[Fuc(a1-3)]GlcNAc
Procedure, shortened: as §1

[18] = biological target: Fuc(a1-2)[Gal(a1-4)]Gal(b1-4)GalNAc
Procedure, shortened: as §1

[19] = biological target: Fuc(a1-2)[GalNAc(a1-3)]Gal
Procedure, shortened: as §1

[20] = biological target: Fuc(a1-2)[GalNAc(a1-3)]Gal(b1-3)GlcNAc
Procedure, shortened: as §1

[21] = biological target: Fuc(a1-2)[GalNAc(a1-3)]Gal(b1-4)Glc
Procedure, shortened: as §1

[22] = biological target: Fuc(a1-2)[GalNAc(a1-3)]Gal(b1-4)GlcNAc
Procedure, shortened: as §1

B1: FBG4 (Homo sapiens), Q96EF6 (protein)
chain: MGARLSRRRLPADPSLALDALPPELLVQVLSHVPPRSLVTRCRPVCRAWRDIVDGPTVWLLQLARDRSAEGRALYAVAQRCLPSNEDKEEFPLCALARYCLRAPFGRNLIFNSCGEQGFRGWEVEHGGNGWAIEKNLTPVPGAPSQTCFVTSFEWCSKRQLVDLVMEGVWQELLDSAQIEICVADWWGARENCGCVYQLRVRLLDVYEKEVVKFSASPDPVLQWTERGCRQVSHVFTNFGKGIRYVSFEQYGRDVSSWVGHYGALVTHSSVRVRIRLS
**Q.** Which results are given for B1?
**A.** glycan array binding signal (z-score) (Fuc(a1-2)Gal): -0.503; glycan array binding signal (z-score) (Fuc(a1-2)Gal(b1-3)GalNAc): -0.185; glycan array binding signal (z-score) [1]: 1.54; glycan array binding signal (z-score) [2]: -0.097; glycan array binding signal (z-score) [3]: -0.32; glycan array binding signal (z-score) [4]: 0.24; glycan array binding signal (z-score) [5]: -0.22; glycan array binding signal (z-score) (Fuc(a1-2)Gal(b1-4)Glc): -0.442; glycan array binding signal (z-score) (Fuc(a1-2)Gal(b1-4)Glc6S): -0.413; glycan array binding signal (z-score) (Fuc(a1-2)Gal(b1-4)GlcNAc): -0.263; glycan array binding signal (z-score) [6]: -0.136; glycan array binding signal (z-score) [7]: 0.051; glycan array binding signal (z-score) [8]: -0.263; glycan array binding signal (z-score) [9]: 0.146; glycan array binding signal (z-score) [10]: -0.084; glycan array binding signal (z-score) [11]: 0.062; glycan array binding signal (z-score) (Fuc(a1-2)Gal6S(b1-4)Glc): -0.489; glycan array binding signal (z-score) [12]: 0.466; glycan array binding signal (z-score) [13]: -0.475; glycan array binding signal (z-score) (Fuc(a1-2)GlcNAc): -0.538; glycan array binding signal (z-score) (Fuc(a1-2)[Gal(a1-3)]Gal): -0.532; glycan array binding signal (z-score) [14]: -0.347; glycan array binding signal (z-score) [15]: -0.492; glycan array binding signal (z-score) [16]: -0.135; glycan array binding signal (z-score) [17]: -0.137; glycan array binding signal (z-score) [18]: -0.227; glycan array binding signal (z-score) [19]: -0.41; glycan array binding signal (z-score) [20]: -0.102; glycan array binding signal (z-score) [21]: 0.01; glycan array binding signal (z-score) [22]: -0.109
